Target: PD-1 on activated human T cells (anti-CD3-stimulated human PBMCs) (human, UniProt Q15116 25-288)
Experiment: cell-based or functional assay

B1: XENP30046 ([NC]PD-1-targeted IL-15/Rα-Fc comprising mAb C_H1_L1.1 and IL-15(N4D/N65D) variant) (Fc fusion)
chain: ITCPPPMSVEHADIWVKSYSLYSRERYICNSGFKRKAGTSSLTECVLNKATNVAHWTTPSLKCIRGGGGSGGGGSGGGGSGGGGSGGGGS[in this place about 120 residues]EPKSSDKTHTCPPCPAPPVAGPSVFLFPPKPKDTLMISRTPEVTCVVVDVKHEDPEVKFNWYVDGVEVHNAKTKPREEEYNSTYRVVSVLTVLHQDWLNGKEYKCKVSNKALPAPIEKTISKAKGQPREPQVYTLPPSREEMTKNQVSLTCDVSGFYPSDIAVEWESDGQPENNYKTTPPVLDSDGSFFLYSKLTVDKSRWEQGDVFSCSVMHEALHNHYTQKSLSLSPGK
heavy: EVQLVESGGGLVQPGGSLRLSCAASGFTFSSFGMHWVRQAPGKGLEWVSYISSGSSIIYYADSVKGRFTISRDNAKNSLYLQMNSLRAEDTAVYYCARGGRLVWSPDYWGQGTLVTVSSASTKGPSVFPLAPSSKSTSGGTAALGCLVKDYFPEPVTVSWNSGALTSGVHTFPAVLQSSGLYSLSSVVTVPSSSLGTQTYICNVNHKPSNTKVDKKVEPKSCDKTHTCPPCPAPPVAGPSVFLFPPKPKDTLMISRTPEVTCVVVDVKHEDPEVKFNWYVDGVEVHNAKTKPREEQYNSTYRVVSVLTVLHQDWLNGKEYKCKVSNKALPAPIEKTISKAKGQPREPQVYTLPPSREQMTKNQVKLTCLVKGFYPSDIAVEWESNGQPENNYKTTPPVLDSDGSFFLYSKLTVDKSRWQQGNVFSCSVMHEALHNHYTQKSLSLSPGK
light: DIVMTQSPDSLAVSLGERATINCKSSQSLLHSGNQKNYLTWYQQKPGQPPKLLIYWASTRESGVPDRFTGSGSGTDFTLTISSLQAEDVAVYYCQNDYSYPFTFGSGTKLEIKRTVAAPSVFIFPPSDEQLKSGTASVVCLLNNFYPREAKVQWKVDNALQSGNSQESVTEQDSKDSTYSLSSTLTLSKADYEKHKVYACEVTHQGLSSPVTKSFNRGEC
  proliferation of CD8+ and CD4+ T cells (CFSE dilution), against XENP28543: 2 fold
